# Hit rate of the full screen: of about 310,000 compounds, about 14,000 (4.5%) showed an effect of 50% or more. The effect is printed as a negative number. This is one part of the list.
# Molecular target: human ether-à-go-go-related gene (hERG) potassium channel (human, UniProt Q12809)
# Test: primary screen, population patch clamp on CHO cells stably expressing hERG
# 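Also: peak tail current of the secondary pulse compared with the same well before compound.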
# Chain of human ether-à-go-go-related gene (hERG) potassium channel (Q12809 whole entry, looked up): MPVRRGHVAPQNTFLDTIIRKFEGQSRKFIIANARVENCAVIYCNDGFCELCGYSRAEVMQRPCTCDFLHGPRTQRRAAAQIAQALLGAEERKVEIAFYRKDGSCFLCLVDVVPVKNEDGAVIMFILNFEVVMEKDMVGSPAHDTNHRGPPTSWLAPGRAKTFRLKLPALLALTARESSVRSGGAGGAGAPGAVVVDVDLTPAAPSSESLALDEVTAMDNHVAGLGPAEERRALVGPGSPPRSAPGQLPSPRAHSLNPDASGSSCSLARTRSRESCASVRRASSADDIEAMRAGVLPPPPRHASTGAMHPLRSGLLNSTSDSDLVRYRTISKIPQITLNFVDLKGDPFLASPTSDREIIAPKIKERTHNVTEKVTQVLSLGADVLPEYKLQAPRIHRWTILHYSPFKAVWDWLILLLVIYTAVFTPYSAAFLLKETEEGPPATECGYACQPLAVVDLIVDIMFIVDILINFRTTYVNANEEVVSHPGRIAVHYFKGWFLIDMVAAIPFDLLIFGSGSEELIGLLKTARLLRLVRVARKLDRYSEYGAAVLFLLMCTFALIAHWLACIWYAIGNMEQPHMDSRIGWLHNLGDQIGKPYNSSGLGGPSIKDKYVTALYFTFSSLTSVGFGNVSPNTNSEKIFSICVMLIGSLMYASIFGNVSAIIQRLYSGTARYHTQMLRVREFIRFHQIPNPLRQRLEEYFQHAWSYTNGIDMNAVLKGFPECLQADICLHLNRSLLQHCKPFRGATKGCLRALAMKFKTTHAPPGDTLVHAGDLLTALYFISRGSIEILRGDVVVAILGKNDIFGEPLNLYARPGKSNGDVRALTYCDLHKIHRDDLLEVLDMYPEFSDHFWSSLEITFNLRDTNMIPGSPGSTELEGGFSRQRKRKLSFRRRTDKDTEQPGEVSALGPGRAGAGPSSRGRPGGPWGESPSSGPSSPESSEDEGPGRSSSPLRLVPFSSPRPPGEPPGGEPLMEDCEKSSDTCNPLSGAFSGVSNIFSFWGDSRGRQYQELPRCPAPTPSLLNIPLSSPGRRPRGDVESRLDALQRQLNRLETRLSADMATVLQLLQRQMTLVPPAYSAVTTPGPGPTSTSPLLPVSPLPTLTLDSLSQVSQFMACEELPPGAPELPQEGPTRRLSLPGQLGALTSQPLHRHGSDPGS
row,SMILES,"hERG current change (%, negative = inhibition) at 10uM [%]"
1,CC1CC(=O)Nc2ccccc2N1S(=O)(=O)c1cccc(Cl)c1 (centres unmarked),3.6
2,N#Cc1nc(COc2cccc(Cl)c2)oc1NCc1ccncc1,-73.7
3,O=c1[nH]c(=O)n(-c2cccc3ccccc23)c(O)c1C=NCc1ccc2c(c1)OCO2,-11.3
4,Cc1onc(-c2ccccc2)c1C(=O)OCC(=O)NCc1ccc(F)cc1,6.47
5,COc1cc2c(cc1OC)C(Cc1ccc(O)cc1)NCC2 (centres unmarked),-8.71
6,COc1cccc(/C=C2/SC(=O)N(C)C2=O)c1OCc1ccc(C(=O)O)cc1,15.6
7,Cc1nc2scc(C)n2c(=O)c1S(=O)(=O)N1CCN(c2ccc([N+](=O)[O-])cc2)CC1,-12
8,CCOC(=O)C1=C(C)NC(=O)NC1c1cn(-c2ccccc2)nc1-c1cccs1 (centres unmarked),-6.19
9,COC(=O)c1ccc(NC(=O)c2ccc(OC(C)=O)c(OC)c2)cc1,4.08
10,Cc1ccc2ccccc2c1COC(=O)c1nonc1N,-7.51
11,COc1cccc(N2CCN(C(=O)CC(C)(C)CC3=NS(=O)(=O)c4ccccc4N3)CC2)c1,-6.09
12,COC(=O)N/N=C\C=C\c1ccc2c(c1)OCO2,-4.5
13,CCCc1nc2ccccc2c(C(=O)O)c1CC,1.82
14,CNC(=O)C(C)NS(=O)(=O)c1ccc(F)cc1 (centres unmarked),10.9
15,CN(Cc1ccccc1F)C(=O)c1ccc2c(=O)n3c(nc2c1)CCC3,10
16,O=C(NC1CC1)c1ccc(CS(=O)c2ccc(Br)cc2)o1 (centres unmarked),4.06
17,COc1cc(/C=C2\S/C(=N/S(=O)(=O)Cc3ccccc3)NC2=O)c([N+](=O)[O-])cc1OC,7.79
18,N#CCC(=O)N/N=C/c1cc([N+](=O)[O-])ccc1N1CCOCC1,-37.3
19,CCOC(=O)N1CCN(Cc2nc3ccc([N+](=O)[O-])cc3c(=O)n2-c2ccc(OC)cc2OC)CC1,-46.1

row,SMILES,"hERG current change (%, negative = inhibition) at 10uM [%]"
1,CS(=O)(=O)N1CCN(c2ccccc2NC(=O)c2cccnc2)CC1,-22.9
2,CCn1cc(CN2CCCC(C(=O)Nc3ccc(-c4nc5ccccc5[nH]4)cc3)C2)c(C)n1 (centres unmarked),-21
3,CC(=O)N1CCN(S(=O)(=O)c2cccc(C(=O)OCC(=O)N3CC(=O)Nc4ccccc43)c2)CC1,20.8
4,Clc1cccc(Cl)c1-c1noc(CN2CCOCC2)n1,11.1
5,Fc1ccccc1CSc1nc2ccccc2[nH]1,-11.9
6,Cc1nn2cc(-c3ccccc3)nc2[nH]c1=O,27.9
7,COc1ccc(C2CC(=O)C3=C(C2)Nc2ccccc2N(C(=O)C2CC2)C3c2cccnc2)cc1OC (centres unmarked),-13.3
8,CCSc1ccccc1C(=O)N=C1NC(=O)CC2C(=O)NCCN12 (centres unmarked),20.3
9,CC1CCCCC1NC(=O)CSc1nnc(CNC(=O)c2ccccc2)n1C (centres unmarked),-20.1
10,O=C(NC(=S)Nc1ccc(S(=O)(=O)N2CCCC2)cc1)C1CCC1,-5.64
11,COc1ccc(CSc2nc3nc(C)cc(C)n3n2)cc1F,-8.48
12,COC(=O)CCC(=O)NC(=S)Nc1c(C)cccc1C,1.38
13,Cc1ccc(CN2C(=O)C(C)(C)Oc3ccc(C(=O)N4CCCCC4)cc32)cc1,-12.1
14,Br.Cc1csc(=Nc2ccccc2)n1C,-2.07
15,CS(=O)(=O)c1ccccc1C(=O)N(CCc1ccccc1)Cc1ccccc1,-18
16,COCCCNCCCCOc1ccc(C)cc1[N+](=O)[O-].O=C(O)C(=O)O,-26
17,Cc1ccccc1SCC(=O)N1CCN(c2ccc(C(F)(F)F)cn2)CC1,-38
18,CCCCOC(=O)C(C#N)c1nc2ccccc2nc1N1CCN(Cc2ccc3c(c2)OCO3)CC1 (centres unmarked),-7.01
19,CN1CCCCCC1=Nc1ccc([N+](=O)[O-])cc1.Cl,-15.7

row,SMILES,"hERG current change (%, negative = inhibition) at 10uM [%]"
1,Cc1ccc(C(=O)NCC(=O)NCC(=O)OCC(=O)c2cccs2)cc1,10.8
2,O=C(N1CCOCC1)N1CCN(S(=O)(=O)c2ccc(Cl)cc2)C1,23.8
3,CN(C)c1ccc(/C=N/NC(=O)CNC(=O)c2ccncc2)cc1,-1.21
4,CCCNC(=O)c1nc(C)c(C)nc1C(=O)Nc1cccc(Cl)c1,-13.7
5,O=Cc1ccc(OC(=O)c2cc(Cl)nc3ccccc23)cc1,18
6,O=C(COC(=O)c1ccccc1O)Nc1cccc2ccccc12,-1.62
7,O=C(O)CC(C(=O)Nc1ccc(Cl)c(Cl)c1)C1CCCO1 (centres unmarked),-4.64
8,O=C(O)C1CCN1C1CCCCC1 (centres unmarked),5.54
9,O=S(=O)(O)c1nc2ccccc2n1Cc1ccc(Cl)cc1Cl,8.08
10,CC(=O)c1ccc(N/C=C/C(=O)c2ccc(Br)cc2)cc1,13.9
11,CC(C)(Cc1ccc(O)cc1)NC(=O)SCc1ccccc1,-10.4
12,CSc1ccc(CC(=O)N2CCC(n3nccc3NC(=O)C3CC3)CC2)cc1,-8.47
13,CNC(=O)c1ccsc1NC(=O)C1CCN(S(=O)(=O)c2ccc(Cl)s2)CC1,-54.9
14,COc1cc(CC(=O)OCc2cccc([N+](=O)[O-])c2)cc(OC)c1OC,-18.3
15,CCN(CC)c1ccc(C2C3CCCCC3(O)CCN2CC(=O)N2CCCCC2)cc1 (centres unmarked),-2.84
16,COc1ccc(CNC(=O)C2CCC(CNS(=O)(=O)c3ccccc3)CC2)cc1 (centres unmarked),2.42
17,CCc1c(C)sc(NC(=O)c2ccco2)c1C(=O)N1CCCCC1,5.5
18,Cc1ccc(-c2cc(C(=O)NCCN3CCOCC3)c3ccccc3n2)o1,-3.84

# — article PMC4336329 (PLoS ONE, 2015)
